Laboratory results from publication PMC6919601, “Identification of Plasmodium dipeptidyl aminopeptidase allosteric inhibitors by high throughput screening” (PLoS ONE, 2019).
In all, about 110,000 compounds went through this assay and about 230 (0.21%) showed an effect of 50% or more. The list shows a part of the results.

molecular target: DPAP1 (Plasmodium falciparum, UniProt Q8IIJ9); test: primary screen, percent inhibition; read by cleavage of a fluorogenic dipeptide substrate; higher = more effect of the substance; parameters: species or system P. falciparum D10 trophozoite lysates; single well
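Also: 30 min substrate incubation versus DMSO and 10 µM JCP410 controls.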

DPAP1, sequence (Q8IIJ9 whole entry, looked up): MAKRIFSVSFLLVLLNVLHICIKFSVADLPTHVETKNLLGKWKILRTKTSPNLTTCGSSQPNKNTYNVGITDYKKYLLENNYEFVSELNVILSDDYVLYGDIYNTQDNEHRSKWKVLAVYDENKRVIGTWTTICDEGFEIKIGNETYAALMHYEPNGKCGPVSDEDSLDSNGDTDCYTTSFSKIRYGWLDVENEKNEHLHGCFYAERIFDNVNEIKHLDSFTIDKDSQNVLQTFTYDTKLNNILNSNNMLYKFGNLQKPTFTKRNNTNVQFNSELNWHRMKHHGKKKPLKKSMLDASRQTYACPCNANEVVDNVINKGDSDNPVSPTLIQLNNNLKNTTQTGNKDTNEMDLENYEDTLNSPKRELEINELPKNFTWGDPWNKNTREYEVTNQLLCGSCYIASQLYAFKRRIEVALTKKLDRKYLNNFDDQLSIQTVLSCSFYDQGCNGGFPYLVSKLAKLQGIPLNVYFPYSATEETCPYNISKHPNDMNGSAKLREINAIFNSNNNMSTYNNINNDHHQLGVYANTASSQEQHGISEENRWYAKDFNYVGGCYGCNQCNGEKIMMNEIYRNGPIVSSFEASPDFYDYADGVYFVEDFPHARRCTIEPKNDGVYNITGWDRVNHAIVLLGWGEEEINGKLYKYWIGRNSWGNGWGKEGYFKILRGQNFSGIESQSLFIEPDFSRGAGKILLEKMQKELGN

Row | Structure (SMILES) | % Inhibition @ 10 uM [%]
1 | Cc1noc(C)c1S(=O)(=O)N(C)CC(=O)NCc1ccccc1 | 12.7
2 | COC(=O)c1c(NC(=O)C2COc3ccccc3O2)sc2c1CCCC2 (stereo not shown) | -2.6
3 | O=C(Cn1ncc2c(=O)oc3ccccc3c21)N1CCC(N2CCCCC2)CC1 | -1.03
4 | COc1cccc(C2CC(C(F)(F)F)n3ncc(C(=O)Nc4ccc(Br)cc4)c3N2)c1 (stereo not shown) | -1.65
5 | CC1=C(C)CC(C(=O)Nc2cccc(C)c2)C(C(=O)O)C1 (stereo not shown) | -0.872
6 | OC(COc1ccc2c(c1)OCO2)CN1CCN(C(c2ccccc2)c2ccccc2)CC1 (stereo not shown) | 3.1
7 | Cc1nc2c3ccccc3n3c(CCCC(=O)O)nnc3n2n1 | -2.92
8 | Cc1ccsc1CN(C(=O)COc1cc(C)c(Cl)c(C)c1)C1CCS(=O)(=O)C1 (stereo not shown) | -2.85
9 | COc1cccc(S(=O)(=O)Nc2ccc(C(=O)N3CCCC3)cc2)c1 | -1.26
10 | CC(=O)Nc1ccc(NC(=O)C2CCCCC2C(=O)O)cc1 (stereo not shown) | 0.687
11 | Cc1sc(NC(=O)c2ccc(F)cc2)c(C(N)=O)c1-c1ccccc1 | 9.06
12 | CC#CCCC(=O)Nc1cccc(C(=O)O)c1 | -1.26
13 | Cc1cccc(C)c1-n1nnnc1C1(Nc2cccc(O)c2)CCCCC1 | -2.66
14 | NS(=O)(=O)c1ccc(Nc2nc(-c3ccc(Cl)cc3)cs2)cc1 | 2.5
15 | O=C(Cc1cccs1)Nc1nc2ccccc2s1 | 1.7
16 | CCc1ccc(NC(=O)CCCC(=O)Nc2ccc(CC)cc2)cc1 | 3.92
17 | CSC1=N/C(=C\c2ccc(OCC(=O)O)cc2)C(=O)S1 | -2.65
18 | O=C1C(Nc2cccc(O)c2)=C(N2CCCCC2)C(=O)c2ccccc21 | 0.162
19 | Cc1ccsc1CN(C(=O)C1C(C=C(Cl)Cl)C1(C)C)C1CCS(=O)(=O)C1 (stereo not shown) | 0.569
20 | O=C(OCc1nc2ccccc2[nH]1)c1cc(F)c(F)c(F)c1F | -2.19
21 | Fc1ccc(CNc2ncnc3c2nc2n3CCCCC2)cc1 | 3.24
22 | O=C(Cc1nn[nH]n1)NCc1ccccc1Cl | -1.59

Row | Structure (SMILES) | % Inhibition @ 10 uM [%]
23 | CN(CC(O)c1ccccc1)C1CCC(c2ccccc2)CC1 (stereo not shown) | -3.8
24 | CCc1ccc2oc(C(=O)NCc3ccncc3)cc(=O)c2c1 | -5.08
25 | CC(C)(C)c1ccc(S(=O)(=O)NCc2ccc(C(=O)NCCc3ccccc3)cc2)cc1 | -1.99
26 | Cc1cccc(-c2noc(CN(C(=O)C(C)(C)C)C3CCCCC3)n2)c1 | 3.74
27 | N#CCCN1c2ccccc2Sc2ccc(C(F)(F)F)cc21 | -5.44
28 | COc1ccc(CNc2oc(COc3ccccc3C)nc2C#N)cc1 | 4.74
29 | Cc1cccn2c(=O)c3cc(C(=O)N(Cc4ccccc4)C(C)C)n(C)c3nc12 | 1.68
30 | O=c1c2cc(-c3ccccc3)sc2nnn1Cc1ccc(F)cc1 | 7.04
31 | CCn1c(C)cc(/C=C/c2oc3ccccc3[n+]2CC)c1C | 8.97
32 | CN1CCN(Cc2ccc3ccccc3c2)CC1 | -6.82
33 | CS(=O)(=O)C1=NSC2=NC(=O)/C(=C\c3cc(Cl)c(O)c(Cl)c3)C(=N)N21 | 1.85
34 | CN(C)CCN1C(=O)C(O)=C(C(=O)c2cc3ccccc3o2)C1c1ccco1 (stereo not shown) | 2.1
35 | Cc1nn(C)c2c1c(-c1ccccc1)cc(=O)n2Cc1ccc(C#N)cc1 | 5.73
36 | COc1cc2c(cc1OC)-c1nc3ccccc3c(=O)n1C(C)(C)C2 | 5.08
37 | O=C1NC(=O)NC2(N1)C(=O)Nc1ccccc12 | 4.84
38 | NC(=O)COc1ccccc1/C=C1/SC(=O)N(Cc2ccc(F)cc2)C1=O | 5.31
39 | O=c1c2ccccc2n2c(-c3ccsc3)nnc2n1CCc1ccccc1 | -7.29
40 | CCOC(=O)C1=c2s/c(=C/c3ccccc3F)c(=O)n2C(N)=C(C#N)C1c1ccccc1F (stereo not shown) | -0.053
41 | Cc1cccc(Nc2ncnc3c2cnn3C)n1 | -1.1
42 | O=C(Cn1ncc2c3ccccc3n(Cc3ccccc3)c2c1=O)NCCN1CCCCCC1 | 0.137
43 | CCCCC(=O)NC1(C(F)(F)F)C(=O)N(C2CCCCC2)C(C)=C1C(=O)OCC (stereo not shown) | 3.54
44 | N#CC1=C(N)Oc2ccc(N)cc2C1c1ccccc1F (stereo not shown) | 2.38

Row | Structure (SMILES) | % Inhibition @ 10 uM [%]
45 | O=C(c1ccc(Cl)cc1)N1CCN(c2ccc(F)cc2)CC1 | -2.78
46 | CC(=O)c1ccc(OC(C)C)c(CN2CCCCC2)c1 | 0.962
47 | CCOC(=O)c1c(N/C(=C/C(=O)c2cccc(OC)c2)C(=O)O)sc2c1CCCC2 | -4.03
48 | COc1cc2c(C(=O)N(C)C3CCCCC3)c(-c3ccc(SC)cc3)n(C)c(=O)c2cc1OC | 0.231
49 | COc1ccc(NC(c2ccccn2)c2ccc3cccnc3c2O)cc1 (stereo not shown) | -6.44
50 | C=C1c2ccc(C)cc2NC(=O)N1c1ccccc1 | -3.37
51 | CCCN(Cc1ccccc1O)CC1CC1 | 3.35
52 | COc1ccc(CCN2CC(C(=O)O)CC2=O)cc1 (stereo not shown) | -5.38
53 | CCOc1cc(C2CC(=O)NC3=C2C(=O)CC(C)(C)C3)ccc1O (stereo not shown) | -1.92
54 | COc1cccc(-c2cc(C(=O)O)c3cc(C)cc(C)c3n2)c1 | -4.89
55 | CCN1CCC2(CC1)OC(=O)C(C)=C2C(=O)NCCCN1CCC(Cc2ccccc2)CC1 | -2.13
56 | Fc1ccc(CN2CCN(c3ccccc3)CC2)cc1F | 0.708
57 | O=C(O)/C(=C/c1ccc2c(c1)OCO2)NC(=O)c1ccc(Br)cc1 | 23.4
58 | O=C(C1CC1)N1CCN(c2ccc(F)cc2)CC1 | -4.03
59 | COC(=O)c1c(NC2=NS(=O)(=O)c3ccccc32)sc2c1CCCC2 | 3.93
60 | Cc1ccc(C)c(-c2csc(Nc3ccc(C)c(Cl)c3)n2)c1 | 0.912
61 | Cc1ccc(-c2nnc(-c3cccs3)o2)cc1 | -3.77
62 | CN1CCN(Cc2nnc(S)n2-c2cccc(C(F)(F)F)c2)CC1 | -0.687
63 | O=C1NC(=O)N(Cc2ccccc2)C(=O)/C1=C/NC12CC3CC(CC(C3)C1)C2 | -4.67
64 | COc1ccc(-c2noc(CN(C(=O)COc3cc(C)cc(C)c3)C(C)C)n2)cc1 | 4.41
